This test addresses trypsin (Examples 7 and 8, source not stated). Put plainly: cell-based or functional assay.

Experimental findings from patent US20220127334A1 (Takeda / Millennium, published 2022) are described below.

B1: UTI-Fc1 (SEQ ID NO:1) (Fc fusion)
chain: AVLPQEEEGSGGGQLVTEVTKKEDSCQLGYSAGPCMGMTSRYFYNGTSMACETFQYGGCMGNGNNFVTEKECLQTCRTVAACNLPIVRGPCRAFIQLWAFDAVKGKCVLFPYGGCQGNGNKFYSEKECREYCGVPGDGDEELLGSGGGG[human IgG1 Fc omitted here]
Turning to B1, the “IC50 of inhibition of trypsin-induced IL-6 production in BEAS2B cells” value was 0.41 µg/mL.
